Assay results as given in PubChem BioAssay AID624330 (Southern Research Specialized Biocontainment Screening …, 2012).
Among all 340,000 compounds or so, about 2,100 (0.62%) were called active. Inconclusive results, whose numbers are uncertain, are shown with a selection of clear calls.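 How the source made its calls: active means first-screen hits whose inhibition reached a set limit at any dose in the follow-up dose series; inconclusive means inhibition above the set first-screen limit but never retested; inactive means the rest.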

The molecules below were run against Rac GTPase-activating protein 1 (Homo sapiens) (UniProt Q9H0H5) (assay: blockers of MgcRacGAP-driven Rac1 GTP hydrolysis – biochemical, ADP Hunter fluorescence, primary and confirmatory, confirmation (AID 624330;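 further: fluorescence reports GDP produced by GAP-driven GTP hydrolysis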)). Settings: MgcRacGAP-stimulated Rac1 GTP hydrolysis, at 30 µM, active compounds read high, GST-tagged Rac1 F28L mutant substrate.
UniProt Q9H0H5, sequence (Q9H0H5 whole entry, looked up): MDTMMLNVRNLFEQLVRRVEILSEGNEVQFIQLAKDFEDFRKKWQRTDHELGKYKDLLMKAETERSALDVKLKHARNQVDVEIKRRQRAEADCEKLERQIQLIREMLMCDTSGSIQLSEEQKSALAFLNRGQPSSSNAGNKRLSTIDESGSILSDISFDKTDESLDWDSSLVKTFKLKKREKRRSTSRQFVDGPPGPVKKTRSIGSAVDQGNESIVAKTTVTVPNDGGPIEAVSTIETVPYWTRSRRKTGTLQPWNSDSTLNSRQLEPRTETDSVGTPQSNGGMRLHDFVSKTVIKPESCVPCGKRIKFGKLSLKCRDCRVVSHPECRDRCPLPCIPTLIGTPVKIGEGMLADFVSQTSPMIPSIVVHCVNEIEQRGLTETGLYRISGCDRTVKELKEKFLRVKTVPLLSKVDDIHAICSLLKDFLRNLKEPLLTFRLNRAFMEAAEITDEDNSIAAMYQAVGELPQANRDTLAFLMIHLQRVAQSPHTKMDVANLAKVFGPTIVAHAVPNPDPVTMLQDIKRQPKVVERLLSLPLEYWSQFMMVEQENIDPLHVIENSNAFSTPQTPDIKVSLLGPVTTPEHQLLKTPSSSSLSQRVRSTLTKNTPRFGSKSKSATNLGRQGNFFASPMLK
For `Cc1cc(C)n2nc(SCC(=O)Nc3ccc(O)cc3)nc2n1`, the inhibition was inconclusive: 66.2%. With `Cc1ccc(OC/C(O)=C(\C#N)c2nc3ccccc3s2)cc1` the inhibition was inactive: 0.24%. In the case of `Oc1ccccc1N1CCN(CC(O)COCc2ccccc2Cl)CC1` (stereo unspecified), the inhibition was inconclusive: 39.9%. With `O=S(=O)(O)c1cc(O)c2c(O)c(N=Nc3cc(Cl)ccc3O)c(S(=O)(=O)O)cc2c1` the inhibition was inconclusive: 53.1%. `Cc1cc(C(F)F)nn1CC(=O)NCc1ccc(Cl)cc1Cl` was tested, and the inhibition was inactive: 6.89%. `O=C(CN1CCN(c2ccc(O)cc2)CC1)Nc1ccc(-c2ccccc2)cc1` was tested, and the inhibition was inconclusive: 32.5%. `COc1ccc(CNC(=S)N/N=C/c2ccc(O)c(OC)c2)cc1` was tested, and the inhibition was inconclusive: 85.7%. With `CCN1/C(=C2/SC(=S)N(C)C2=O)C=Cc2cc(C)ccc21` the inhibition was inactive: 1.56%. For `COc1cc(/C=C2/C(=O)N(c3ccc(C(=O)O)cc3)N=C2C)cc(OC)c1O`, the inhibition was inconclusive: 36%. For `COc1cc(/C=N/NC(=O)C2COc3ccccc3O2)ccc1O` (stereo unspecified), the inhibition was inconclusive: 65.7%. For `CCOC(=O)C1=C(O)/C(=C\c2cccc(OC)c2)N=C1C`, the inhibition was inactive: 7.59%. `COc1ccccc1NC(=O)c1oc2ccccc2c1NC(=O)C1CC1` was tested, and the inhibition was inactive: 1.66%. In the case of `CN(C)c1ccc(NC(=S)c2ccccn2)cc1`, the inhibition was inconclusive: 62.1%. For `OCCCNc1ncnc2sc(-c3ccccc3)cc12`, the inhibition was inconclusive: 32.7%. With `COC(=O)c1ccc(NC(=S)Nc2ccc3ccccc3c2)cc1` the inhibition was inactive: 15.3%. With `C/C(=N\Nc1nc(C)cc(-c2ccccc2)n1)c1ccc(O)cc1` the inhibition was inconclusive: 53.8%. `COc1ccc(-c2ccc(OC(=O)NC3CCS(=O)(=O)C3)cc2)cc1` (stereo unspecified) was tested, and the inhibition was inconclusive: 151%. With `COc1ccc(C(CNC(=O)CCNS(=O)(=O)c2ccccc2)N2CCOCC2)cc1` (stereo unspecified) the inhibition was inconclusive: 33.3%. With `N=C1CCC(=N)c2c1c(O)c1ccccc1c2O` the inhibition was inconclusive: 39.4%. With `CC(=O)Nc1ccc(OC(=O)Oc2ccc(NC(C)=O)cc2)cc1` the inhibition was inconclusive: 70.4%. With `COc1ccc(-n2c(=S)[nH]c3cc(C(=O)O)ccc3c2=O)cc1` the inhibition was inactive: 1.88%. `CC(NC(=O)C1CC(=O)N(c2ccc3c(c2)OCCO3)C1)c1ccccc1` (stereo unspecified) was tested, and the inhibition was inactive: 10.6%. In the case of `COc1ccccc1/C=C/CN1CCSCC1`, the inhibition was inconclusive: 32.9%. In the case of `O=C(COc1ccc2ccccc2c1)N1CCCC1`, the inhibition was inactive: 7.41%. For `CC1CCCN(CCOc2ccc(Br)cc2)C1` (stereo unspecified), the inhibition was inactive: 12%. In the case of `Nc1ccc(OCC(O)C[n+]2ccc(CCS(=O)(=O)[O-])cc2)cc1` (stereo unspecified), the inhibition was inconclusive: 40.6%. For `CCOc1ccc(NCc2cccn2-c2nnc(N3CCC(C(=O)NCCCN4CC(C)CC(C)C4)CC3)s2)cc1` (stereo unspecified), the inhibition was inconclusive: 55.1%. `Cc1cc(C2(O)C(=O)Nc3ccccc32)ccc1F` (stereo unspecified) was tested, and the inhibition was inactive: -6.52%. For `Cc1cc(C)cc(OCC(=O)OCC(=O)NC2CC2)c1`, the inhibition was inactive: -3.46%. `C=C(CC)C(=O)c1ccc(OCC(=O)O)c(Cl)c1Cl` was tested, and the inhibition was inactive: 4.69%. With `COc1ccc(/C=N/NC(=O)c2nonc2C)cc1` the inhibition was inactive: 17.8%. `CCC(NC(=O)Nc1ccc(O)cc1)(C(F)(F)F)C(F)(F)F` was tested, and the inhibition was inconclusive: 45.9%. In the case of `Cc1cc(C)c(OCCNCc2ccccc2)c(C)c1`, the inhibition was inconclusive: 33%. In the case of `Oc1ccc(-c2csc(-c3ccccc3)n2)cc1O`, the inhibition was inconclusive: 75.4%. For `Cc1cc(Cl)c(OCCCNC2CCCC2)c(Br)c1`, the inhibition was inconclusive: 34.5%. With `N#C/C(=C\c1ccc(O)c(O)c1)C(=O)Nc1ccccc1` the inhibition was inconclusive: 70.2%. With `Cc1nnc(SCC(=O)NNC(=O)COc2ccc(Cl)cc2)s1` the inhibition was inactive: 3.46%. For `CN(C)c1ccc(NC(=O)c2sc(SCC(=O)Nc3ccc(Br)cc3)nc2N)cc1`, the inhibition was inactive: 10.8%. In the case of `Oc1ccc(C=Nc2ccc(N3CCOCC3)cc2)c(O)c1`, the inhibition was inconclusive: 32.5%. With `Cn1c(=Nc2ccc(N3CCOCC3)cc2)ccc2ccccc21` the inhibition was inactive: 16.1%. `COc1cc(/C=C/C(=O)OCC(=O)NCc2ccco2)ccc1O` was tested, and the inhibition was inconclusive: 69.8%. `O=C(CN1C(=O)/C(=C/c2ccco2)SC1=S)NC1CCS(=O)(=O)C1` (stereo unspecified) was tested, and the inhibition was inconclusive: 35.8%. With `COc1cccc(/C=N/n2c(-c3cc(C)[nH]n3)n[nH]c2=S)c1OC` the inhibition was inconclusive: 34.4%. With `Cc1ccc(C)c(CSc2ncccc2C(=O)O)c1` the inhibition was inactive: 9.95%. `CCOc1ccc(OCCC(=O)OCC(=O)N2CCN(S(=O)(=O)c3ccc(C)cc3)CC2)cc1` was tested, and the inhibition was inconclusive: 59.4%. With `Cc1cccc(/C=N\NC(=O)c2ccccc2-n2cccc2)c1` the inhibition was inactive: 5.46%. With `CC(=O)Oc1ccc(/C=C2/C(=O)N(c3ccccc3)N=C2C)cc1` the inhibition was inactive: 25%. `C=CCNCCCCOc1ccc(Br)cc1C` was tested, and the inhibition was inconclusive: 34.5%. In the case of `COc1ccc2cc(CN(CC3COCCO3)S(=O)(=O)c3ccccc3)c(=O)[nH]c2c1` (stereo unspecified), the inhibition was inactive: -14.3%. `CC1=CC(C)(C)Nc2ccc(OC(=O)CCN3C(=O)c4ccccc4C3=O)cc21` was tested, and the inhibition was inconclusive: 35.4%. `CCOc1ccc(C(=O)N2CCC(C(=O)c3ccc4c(c3)OCCO4)CC2)cc1` was tested, and the inhibition was inactive: -2.21%. With `Clc1ccccc1CSc1nnc(-c2ccco2)c(-c2ccco2)n1` the inhibition was inconclusive: 52.1%. `CCOc1cc(/C=C2\SC(=S)N(C(C(=O)O)c3ccccc3)C2=O)ccc1O` (stereo unspecified) was tested, and the inhibition was inconclusive: 34.3%. For `CC(=O)c1ccccc1OCCCN1CCCCC1`, the inhibition was inconclusive: 35.2%. In the case of `CCN1CCN(CCOCCOc2ccccc2)CC1`, the inhibition was inactive: 28.1%. `Cc1sc(N)c(C#N)c1C` was tested, and the inhibition was inconclusive: 32.4%. In the case of `Nc1ccc(Nc2ccccc2N)cc1`, the inhibition was inactive: 24.3%. With `CN(CCCC(=O)O)c1ccc(N=Nc2ccc([N+](=O)[O-])cc2)cc1` the inhibition was inconclusive: 35%. In the case of `CCc1nc(SCC(=O)Nc2ccc(N(C)C)cc2)n[nH]1`, the inhibition was inconclusive: 74.5%. `O=c1c2c([N+](=O)[O-])cc([N+](=O)[O-])cc2sn1-c1ccc(Br)cc1` was tested, and the inhibition was inconclusive: 35.8%. For `COc1ccc(C2NC(c3ccc(OC)c(OC)c3OC)C(C)C(=O)C2C)c(OC)c1OC` (stereo unspecified), the inhibition was inactive: 1.64%.
